From PubChem BioAssay AID1347073 (National Center for Advancing Translational Sciences (NCATS), 2019) come the findings set out here.

Molecules are shown by their SMILES. The campaign covered roughly 45,000 compounds. About 200 (0.44%) were called active. Inconclusive results (about 7%) are left out. Calls come from the whole dose curve; as a rule, active = well fitted activation curve with a large enough effect; inconclusive = small, poorly fitted or top-dose-only effect; inactive = no such curve, though single readings can be large or run the other way. The list shows a part of the results.
Potency is the fitted concentration of half-maximal effect.

This experiment can be described thus: qHTS of TDP-43 Inhibitors: NCGC Sytravon Library Screen. For growth rescue (activation): 0% is about no effect. Note: nearly all actives have a fitted effect of over 55% in size. The following applies: yeast TDP-43 toxicity rescue, BacTiter-Glo growth, 24 h; series mostly up to 46.1 µM; growth rescue (activation): at the top concentration. An outline of the steps:
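TDP-43-expressing yeast, pregrown in raffinose, seeded at OD600 0.02 in galactose medium with compound for 24 hr at 30 deg C. Growth read by BacTiter-Glo luminescence, so rescue of toxicity appears as activation.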
Regarding `O=C(CCl)Nc1ccc(S(=O)(=O)Nc2nccs2)cc1`, the “growth rescue (activation)” value is inactive: 6.05%.
On the same count and under the same terms, the value for `CCOc1cc(S(=O)(=O)N2CCCC2)c(C)cc1C` was inactive: -7.12%; that for `O=C(N=C1c2ccccc2CN1c1ccccc1)c1cccc([N+](=O)[O-])c1` was inactive: 12.5%; that for `COC(=O)/C=C1/N/C(=N\c2nc(C)cc(C)n2)N(c2cccc(C)c2)C1=O` was inactive: 0.319%.
With `O=C(CSc1nnc2c(Cl)cc(Cl)cn12)NC1CCS(=O)(=O)C1` (configuration not stated), the “growth rescue (activation)” value is inactive: 11.5%.
`CCc1nc2ccc(C(=O)NC3CCN(Cc4ccccc4)CC3)cn2c1N(C)CCN1CCOCC1`: the “growth rescue (activation)” value is inactive: 1.58%.
The same measure, in the same setting: the value for `Cc1cc(C)c(NC(=O)CSc2nnc(-c3ccccn3)n2N)c(Cl)c1` was inactive: 1.39%.
For the molecule `Cc1ccc(S(=O)(=O)N(C)CC(=O)N2CCN(Cc3ccc4c(c3)OCO4)CC2)cc1`, the “growth rescue (activation)” value was inactive: -11.7%.
Take `O=S(=O)(NCC1CCCO1)c1ccc(S(=O)(=O)N(Cc2ccc(F)cc2)Cc2ccco2)cc1` (configuration not stated): the “growth rescue (activation)” value is inactive: 13.9%.
Take `Cc1ccc(NC(=O)CN2C(=O)S/C(=C\c3cc(C)n(-c4ccc(C(=O)O)cc4)c3C)C2=O)cc1`: the “growth rescue (activation)” value was inactive: 8.44%.
For the molecule `CCCCCOCC1CC(C/C(C)=N/Nc2nc(-c3ccccc3)cs2)C(=O)O1` (configuration not stated), the “growth rescue (activation)” value was inactive: -5.89%.
For `Cc1cc(C)n(-c2ccc(C(=O)Nc3cccc(S(=O)(=O)N4CCCC4)c3)cc2)n1`, the “growth rescue (activation)” value is inactive: -7.25%.
Take `Cc1ccc(S(=O)(=O)N(CC(=O)NCc2cccnc2)c2ccc(F)cc2)cc1`: the “growth rescue (activation)” value is inactive: -11.1%.
Still for that read-out and setting: the value for `COc1ccc2sc(C)[n+](C)c2c1` was inactive: 3.39%; that for `Cc1nnc(NC(=O)C2CCCN2S(=O)(=O)c2ccc(Cl)cc2)s1` (configuration not stated) was inactive: 11.1%; that for `COc1cc(/C=C2\SC(=S)N(NS(=O)(=O)c3ccc(C)cc3)C2=O)cc(OC)c1OC` was inactive: -13.9%.
Same read-out and setting: the value for `COc1cccc(N(C(=O)c2snc(C(N)=O)c2N)C(C(=O)NCC2CCCO2)c2cccs2)c1` (configuration not stated) was inactive: 9.73%.
Regarding `O=C(O)c1ccccc1OCCOc1ccccc1`, the Potency was active: 22.4 µM.
With `O=C(Nc1cc(C(F)(F)F)ccc1Cl)C(Sc1nnc(-c2cccs2)o1)c1ccccc1` (configuration not stated), the “growth rescue (activation)” value is inactive: 15.3%.
As to `CC(C)CCC(O)(CCC(C)C)C(=O)NNc1ccccc1`, the “growth rescue (activation)” value was inactive: 14.4%.
Same read-out and setting: for `CCN1CCN(CC(O)COC(c2ccccc2)c2ccccc2)CC1` (configuration not stated) the value was inactive: -1.99%; for `Cc1cc(S(=O)(=O)NCc2ccncc2)c(C)cc1Br`, inactive: -5.11%.
For `O=C(/C=C/Nc1ccc(F)cc1F)c1cccs1`, the “growth rescue (activation)” value is inactive: 13.7%.
Take `COc1cc(/C=N/Nc2ccccn2)ccc1O`: the “growth rescue (activation)” value is inactive: -7.15%.
On the same count and under the same terms, for `CCc1cc(-c2n[nH]c(CCC(=O)O)c2-c2nc3ccccc3n2C)c(O)cc1O` the value was inactive: -1.55%.
For `CC(=O)c1ccc(N2C(=O)CC(N3CCN(S(=O)(=O)c4cc(C)ccc4C)CC3)C2=O)cc1` (configuration not stated), the “growth rescue (activation)” value was inactive: 20.8%.
The same measure, in the same setting: for `CCN(CC)CCCNC(=O)c1ccc(OCC(=O)Nc2ccccc2C(F)(F)F)c(OC)c1` the value was inactive: 11.6%.
Consider `Cc1ccc(C)n1-c1nnc(N2CCC(C(=O)NCc3ccccc3Cl)CC2)s1`, for which the “growth rescue (activation)” value is inactive: 2.74%.
Consider `CC(NC(=S)Nc1c(Br)cccc1OC(F)F)C(C)(C)C` (configuration not stated), for which the “growth rescue (activation)” value is inactive: 22.4%.
Consider `COc1ccccc1C(=O)NNC(=O)C1CCCO1` (configuration not stated), for which the “growth rescue (activation)” value was inactive: -44.5%.
Still for that read-out and setting: the value for `CCOC(=O)C1CCN(Cc2cc(C(C)(C)C)c(O)c(C(C)(C)C)c2)CC1` was inactive: -1.13%; that for `N/C(=N\OC(=O)C(c1ccccc1)c1ccccc1)c1ccncc1` was inactive: 17.4%; that for `O=C(c1cc(C2CCCCN2C(=O)CCCc2ccccc2)on1)N1CCOCC1` (configuration not stated) was inactive: -5.25%.
Same read-out and setting: the value for `Cc1ccc(S(=O)(=O)N2CCOCC2)cc1NC(=O)COC(=O)Cc1ccccc1` was inactive: 6.45%.
In the case of `O=c1[nH]c2ccccc2nc1C(F)(F)F`, the “growth rescue (activation)” value was inactive: 13.1%.
The same measure, in the same setting: for `COc1ccc(NC(=O)c2cc(-c3cc(OC)c(OC)c(OC)c3)nc3ccccc23)cc1OC` the value was inactive: 4.53%; for `CCOc1ccc(/C=C2\SC(=S)N(C)C2=O)cc1OC`, inactive: -5.7%; for `COc1ccc(Cl)cc1NC(=S)NNC(=O)C1(C)CC1(Cl)Cl` (configuration not stated), inactive: 5.82%.
Take `CC(C)(C)NC(=O)c1ccccc1NC(=O)c1ccc2c(c1)OCO2`: the “growth rescue (activation)” value was inactive: -6.28%.
Turning to `O=C(CSc1nc2ccccc2[nH]1)c1ccccc1F`, the “growth rescue (activation)” value was inactive: 3.67%.
Still for that read-out and setting: for `CC(=O)Nc1ccc(C(=O)Nc2ccc(S(=O)(=O)N3CCCCC3)cc2)cc1` the value was inactive: 4.63%; for `Cc1cc(Oc2ccc(=O)n(C)n2)nc(Oc2ccc(=O)[nH]n2)n1`, inactive: -3.8%.
For the molecule `CCOc1ccc(NC(=O)CCNC(=O)c2ccc(Br)cc2)cc1`, the “growth rescue (activation)” value is inactive: -8.77%.
Still for that read-out and setting: the value for `CC(NC(=O)Cn1c(NCCO)nc2ccccc21)C1CC2CCC1C2` (configuration not stated) was inactive: -15.3%; that for `COc1cc(NC2c3ccccc3C(=O)N2Cc2ccccc2)cc(OC)c1OC` (configuration not stated) was inactive: 29.6%.
For `CN(C)C(=O)C1C2NC(=S)N(c3cccc(Cl)c3)C1(C)Oc1ccc(Cl)cc12` (configuration not stated), the “growth rescue (activation)” value is inactive: 17.9%.
Take `CCOc1ccc2nc(/N=C/c3nc(-c4ccc(Br)cc4)oc3O)sc2c1`: the “growth rescue (activation)” value was inactive: -14.2%.
With `CN(CCO)c1cc(N2CCCCC2)c2nonc2c1[N+](=O)[O-]`, the “growth rescue (activation)” value was inactive: -7.18%.
Turning to `O=C1c2cccnc2C(=O)N1c1cccc([N+](=O)[O-])c1`, the “growth rescue (activation)” value was inactive: -20%.
Same read-out and setting: for `CCn1cc(C(=O)Nc2cccc(NC(C)=O)c2)c2cc(OC)c(OC)cc2c1=O` the value was inactive: 17%; for `Cc1cc(C)nc(N2CCCC(C(=O)Nc3cccc(Cl)c3)C2)n1` (configuration not stated), inactive: 12.8%; for `CCNc1c([N+](=O)[O-])c(=O)n(CC)c2ccccc12`, inactive: 5.06%.
